Source: paper PMC4336329 (PLoS ONE, 2015)
The campaign covered roughly 310,000 compounds. About 14,000 (4.5%) showed an effect of 50% or more. The effect is printed as a negative number. Some of the results follow.

Molecular target: human ether-à-go-go-related gene (hERG) potassium channel (human, UniProt Q12809)
Assay: primary screen, population patch clamp on CHO cells stably expressing hERG
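Note: peak tail current of the secondary pulse compared with the same well before compound.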

Sequence of human ether-à-go-go-related gene (hERG) potassium channel (Q12809 whole entry, looked up): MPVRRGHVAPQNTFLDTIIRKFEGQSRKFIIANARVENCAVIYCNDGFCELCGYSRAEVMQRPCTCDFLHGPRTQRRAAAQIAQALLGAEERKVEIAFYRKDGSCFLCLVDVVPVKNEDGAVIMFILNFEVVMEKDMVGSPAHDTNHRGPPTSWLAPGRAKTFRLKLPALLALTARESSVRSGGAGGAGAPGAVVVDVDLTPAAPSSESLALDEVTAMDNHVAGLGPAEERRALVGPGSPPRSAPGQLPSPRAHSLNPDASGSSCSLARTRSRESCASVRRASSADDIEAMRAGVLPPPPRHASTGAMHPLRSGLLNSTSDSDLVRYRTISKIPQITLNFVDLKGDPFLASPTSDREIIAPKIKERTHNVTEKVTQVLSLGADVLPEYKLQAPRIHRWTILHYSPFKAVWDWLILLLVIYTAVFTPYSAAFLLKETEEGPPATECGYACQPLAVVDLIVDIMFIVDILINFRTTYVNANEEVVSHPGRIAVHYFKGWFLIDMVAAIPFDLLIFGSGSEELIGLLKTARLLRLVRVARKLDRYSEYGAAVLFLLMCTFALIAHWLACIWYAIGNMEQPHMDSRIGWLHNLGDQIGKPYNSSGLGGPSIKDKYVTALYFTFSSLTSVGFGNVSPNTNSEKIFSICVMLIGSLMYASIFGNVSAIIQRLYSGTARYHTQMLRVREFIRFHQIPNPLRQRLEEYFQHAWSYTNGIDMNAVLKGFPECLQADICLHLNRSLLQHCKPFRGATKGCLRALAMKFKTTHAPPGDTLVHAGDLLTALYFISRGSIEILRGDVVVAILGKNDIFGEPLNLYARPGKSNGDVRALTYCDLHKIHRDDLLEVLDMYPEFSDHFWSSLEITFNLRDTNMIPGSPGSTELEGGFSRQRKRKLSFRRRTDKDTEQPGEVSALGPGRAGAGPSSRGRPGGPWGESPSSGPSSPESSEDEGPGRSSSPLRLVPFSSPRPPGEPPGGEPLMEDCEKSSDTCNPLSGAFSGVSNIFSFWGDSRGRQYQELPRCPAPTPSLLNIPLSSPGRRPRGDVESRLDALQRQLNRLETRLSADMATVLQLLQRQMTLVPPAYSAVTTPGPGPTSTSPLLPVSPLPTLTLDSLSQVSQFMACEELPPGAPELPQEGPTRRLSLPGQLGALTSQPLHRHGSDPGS

Structure (SMILES)	hERG current change (%, negative = inhibition) at 10uM [%]
CCO[C@H]1OC(C(=O)N2CCN(C)CC2)=C[C@@H](c2csc3ccccc23)[C@@H]1CCCO	-19.5
O=C(NCc1ccccc1)c1nncc(-c2ccccc2)n1	-4.37
COC(=O)c1ccc(N2C(=O)CC(NCc3ccccc3)C2=O)cc1 (stereo not drawn)	8.14
O=C(O)c1ccccc1C(=O)O	-10.4
COCCN(CC(=O)Nc1cccc(C)c1C)C(=O)c1cc2ccccc2cc1OC	-26.7
Br.C=CCn1c(C)csc1=Nc1ccc(C(=O)O)cc1	13.5
O=C(N/N=C/c1ccccc1C(=O)O)c1ccncc1	18.3
O=C(CSc1nnc(Cn2c(=O)sc3ccccc32)n1-c1ccccc1)NCc1ccco1	-9.17
C/C=C\C(=O)Nc1cccc(C2=NOC3(C2)C[C@@H](C(N)=O)N(C(=O)CC(c2ccccc2)c2ccccc2)C3)c1 (stereo partly drawn)	-5.69
Cc1sc2ncn(CC(=O)NCCCN3CC(C)CC(C)C3)c(=O)c2c1S(=O)(=O)N1CC(C)CC(C)C1 (stereo not drawn)	-32.1
COC(=O)c1cc(NC(=O)Cn2c(=O)oc3ccccc32)cc(C(=O)OC)c1	12.4
CC(C)(C)[C@H]1C=C(C(=O)Nc2ccccc2)O[C@@H](OCc2ccc(CO)cc2)C1	-20.8
O=C(Cc1cccs1)NCCS(=O)(=O)N1CCN(c2cccc(Cl)c2)CC1	-28.4
COc1ccc(C2Nc3ccccc3C(=O)N2C2CCCCC2)cc1 (stereo not drawn)	-1.76
Cc1cc(C)cc(C(=O)Nc2nnc(SCC(=O)NCC3CCCO3)s2)c1 (stereo not drawn)	10.2
COc1ccc(NC(=O)CN2C(=O)NC(c3ccccc3)(c3ccccc3)C2=O)cc1	-55
COc1ccc(C(=O)NNC(=S)NC(=O)/C=C/c2cccs2)cc1	7.81
CN(C)S(=O)(=O)c1cccc(COC(=O)CN2CCCCCC2=O)c1	9.49
O=C(CN1CCN(c2ccccn2)CC1)N1c2ccccc2CCc2ccccc21.O=C(O)C(=O)O	-19.1
O=C(O)Cc1sc(NC2CCCCC2)nc1-c1ccc(Cl)cc1	14.2
COc1c(Br)cc(Br)cc1C(=O)Nc1ccccc1N1CCCC1	27.3

Structure (SMILES)	hERG current change (%, negative = inhibition) at 10uM [%]
COc1ccc(OC)c(CCNC(=O)CCc2cn(C)c3ccccc23)c1	-2.8
N#CCC(=O)Nc1ccc(C(=O)N2CCN(S(=O)(=O)c3ccc4ccccc4c3)CC2)cc1	6.47
Cc1onc(-c2ccccc2Cl)c1C(=O)Nc1nnc(Cc2ccc(Cl)cc2)s1	5.68
O=C(NCCCCO)C(F)(F)C(F)(F)C(F)(F)C(=O)NCCCCO	20.1
Brc1ccccc1-c1nnc(CSc2nnnn2-c2ccccc2)o1	-13.1
CCOCCCNC(=O)C(NC(=O)Cc1c[nH]c2ccccc12)c1ccc(OC)cc1 (stereo not drawn)	10.2
CCOc1ccc(-n2cnnn2)cc1S(=O)(=O)N1CCC(C)CC1C (stereo not drawn)	-19.7
NS(=O)(=O)c1ccc(NC(=S)Nc2ccn(Cc3cccc4ccccc34)n2)cc1	15.8
CC(NS(=O)(=O)c1ccc(OCC(=O)N2CCOCC2)cc1)c1ccccc1 (stereo not drawn)	16.7
O=S(=O)(NCCCNS(=O)(=O)c1c(F)cccc1F)c1ccc2c(c1)OCCO2	-3.98
O=C(Cc1cc(=O)[nH][nH]1)N/N=C/c1ccccc1[N+](=O)[O-]	-0.969
CCOc1ccc(S(=O)(=O)N2CCN(CN3C(=O)CC4(CCCC4)C3=O)CC2)cc1	-8.79
CCCC(=O)NC(c1ccccc1)c1ccc2cccnc2c1O (stereo not drawn)	-15.3
O=C(O)c1cc(Nc2nc(N3CCOCC3)nc(N3CCOCC3)n2)ccc1Cl	4.39
Cc1ccc(/C(O)=C2\C(=O)C(=O)N(C)C2c2cccc([N+](=O)[O-])c2)cc1 (stereo not drawn)	16.4
COc1ccc(S(=O)(=O)N2CCC(C(=O)NCc3ccccn3)CC2)cc1C	-2.08
O=C(CN(Cc1ccc(Cl)c(Cl)c1)S(=O)(=O)c1ccccc1)N/N=C\c1ccc2c(c1)OCO2	-7.64
Cc1ccc(S(=O)(=O)CCC(=O)Nc2nc3c(s2)CCCC3)cc1	-1.29
CC(=O)Nc1ccc(NC(=O)c2cc([N+](=O)[O-])cc([N+](=O)[O-])c2)cc1	22.5
Nc1nnc(CC2=CCCCC2)s1	13.7
Cc1ccc(NC(=O)C(C)SCc2nc3sc(C)c(C)c3c(=O)[nH]2)nc1 (stereo not drawn)	-10.7

Structure (SMILES)	hERG current change (%, negative = inhibition) at 10uM [%]
COc1ccc(C2C(C#N)=C(N)Oc3cccc(O)c32)cc1 (stereo not drawn)	13.1
CC(C)C(C)NC(=O)COc1ccc(S(=O)(=O)N2CCOCC2)cc1Cl (stereo not drawn)	3.61
CCN1C(=O)C(=C2C=C(C)OC(C)=C2)C(=O)N(CC)C1=S	13.2
Cc1cccn2c(=O)c(/C=C(\C#N)S(=O)(=O)c3ccccc3)c(N3CCN(c4ccccc4)CC3)nc12	9.12
CCn1c(SCc2ccc(F)cc2)nnc1C1CCN(S(=O)(=O)c2ccc(OC)cc2)CC1	-64.3
O=C(NN1C(=O)c2ccc3c4c(ccc(c24)C1=O)CC3)c1ccc(Br)cc1	7.7
CC(C)c1cc(C(=O)NCc2cccnc2)no1	-11.1
CCNC(=S)NN=C1c2ccccc2-c2ccccc21	-21.6
O=C1C2=C(C(c3ccccc3)=NCCN2)C(c2cccc([N+](=O)[O-])c2)N1c1ccccc1 (stereo not drawn)	-21.3
COP(=S)(OC)SCN1C(=O)c2ccccc2C1=O	3.77
CC1CCCN(S(=O)(=O)c2cc3c4c(c2)CCN4C(=O)CC3)C1 (stereo not drawn)	-6.07
CCOC(=O)N1CCC(n2c(SCC(=O)OCc3ccccc3)nc3ccsc3c2=O)CC1	-31.9
CCN(c1ccccc1)S(=O)(=O)c1ccc(OCc2c(C)noc2C)cc1	-9.09
O=C(CSc1nnc(-c2ccccc2F)o1)NC(=O)Cc1ccccc1	8.85
COc1cc(CNn2cn[nH]c2=S)cc(Cl)c1OCc1ccccc1	9.54
CC(=O)C1=C(C)NC(=O)NC1/C=C/c1ccccc1 (stereo not drawn)	10.9
CC(=O)N1CCN(Cc2nc3cc(NC(=O)C4CCCCC4)ccc3n2C)CC1	-4.48
CCCCn1c(N)c(C(=O)NCc2cccs2)c2nc3ccccc3nc21	-5.67
Cc1cccc(C(=O)OCC(=O)Nc2ccc(N3CCCCC3)cc2)c1O	18.8
O=C(CN1CCC(c2nc3ccccc3s2)CC1)N1CCCCC1	-33.5
COc1cc(C2C(C(=O)/C=C/c3ccccc3)=C(O)C(=O)N2c2ccccn2)ccc1O (stereo not drawn)	27.3

Structure (SMILES)	hERG current change (%, negative = inhibition) at 10uM [%]
CCSc1nnc(NC(=O)CCCOc2ccc(C)cc2)s1	50.2
Cc1cc(C(=O)NNc2ccc(F)cc2F)no1	20.3
COc1cc2c(cc1OC)-c1cc(Nc3ccc(F)cc3)nc(=O)n1CC2	-9.18
Cc1ccc(C(c2nnnn2Cc2cccs2)N2CCN(C(=O)c3ccco3)CC2)cc1 (stereo not drawn)	-62.5
Fc1ccc(Oc2nc(-c3ccccn3)nc3ccccc23)cc1	-20
COc1ccc(C2C(=O)N(C3CCCCC3)CC(=O)N2Cc2ccc3c(c2)OCO3)cc1 (stereo not drawn)	-31.6
COc1ccc2nc(SCC(=O)NCc3ccc(OC)c(OC)c3)[nH]c2c1	23.3
COCCNC(=O)C(c1ccc(OC)cc1)N(C(=O)Cn1nnc2ccccc21)c1cccnc1 (stereo not drawn)	16.9
N#CCC(=O)Nc1ccc(C(=O)NCc2ccccn2)cc1	19.3
Cc1ccc(Nc2nc(CSc3nnc(-c4cccs4)o3)cs2)cc1	10.4
Cc1oc(/N=C/c2ccc3c(c2)OCO3)c(C#N)c1C	-2.31
CCSc1nc(C)c(CCOc2cccc(C)c2)c(=O)[nH]1	8.09
COC(=O)C(NC(=O)CCc1c(C)nc2c(c(C)nn2-c2ccccc2)c1C)C(C)C (stereo not drawn)	-0.592
O=C(CNC(=O)c1cccs1)c1ccc(F)cc1	15.9
COc1ccccc1C(=O)NCCn1cc(SCC(=O)Nc2nnc(C)s2)c2ccccc21	-18
COc1cc(NC(=S)N2CCN(S(=O)(=O)c3ccc(C)cc3)CC2)cc(OC)c1	-4.7
COCCNc1oc(/C=C/c2ccc(F)cc2)nc1S(=O)(=O)c1ccccc1	1.81
COCCN(CCOC)S(=O)(=O)c1ccc(C(=O)Nc2nnc(CSC)o2)cc1	12.3
COc1nnc(-c2ccc(C)c(S(N)(=O)=O)c2)c2ccccc12	4.8
COCCN(C(=O)CSc1nnc(-c2ccccc2F)o1)c1c(N)n(CC(C)C)c(=O)[nH]c1=O	2.88
CCOc1ccc2nc(NC(=O)C3CCCN(S(=O)(=O)c4c(C)noc4C)C3)sc2c1 (stereo not drawn)	6.82
